Measurements as given in the supplement of paper PMC9927326.
MIC of clinical C. albicans isolates, CLSI broth microdilution (ranges and time not stated); higher = less susceptible. Call: susceptible or wild type [S] / resistant or non-wild type [R] by CLSI breakpoints or epidemiological cut-offs; intermediate and dose-dependent carry no call here (the paper groups them with resistant). '<=' and '>=' mark each drug's lowest and highest value, inferred; the source prints them plain. Isolates are numbered anew.

How the values were obtained:
Assay in all cases: CLSI broth microdilution.
[1] = compound: CCC(C)n1ncn(-c2ccc(N3CCN(c4ccc(OCC5COC(Cn6cncn6)(c6ccc(Cl)cc6Cl)O5)cc4)CC3)cc2)c1=O [itraconazole]
[2] = compound: CCCCCOc1ccc(-c2cc(-c3ccc(C(=O)N[C@H]4C[C@@H](O)[C@@H](O)NC(=O)[C@@H]5[C@@H](O)[C@@H](C)CN5C(=O)[C@H]([C@H](O)CC(N)=O)NC(=O)[C@H]([C@H](O)[C@@H](O)c5ccc(O)c(OS(=O)(=O)O)c5)NC(=O)[C@@H]5C[C@@H](O)CN5C(=O)[C@H]([C@@H](C)O)NC4=O)cc3)no2)cc1 [micafungin]
[3] = compound: CCCCCOc1ccc(-c2ccc(-c3ccc(C(=O)N[C@H]4C[C@@H](O)[C@@H](O)NC(=O)[C@@H]5[C@@H](O)[C@@H](C)CN5C(=O)[C@H]([C@@H](C)O)NC(=O)[C@H]([C@H](O)[C@@H](O)c5ccc(O)cc5)NC(=O)[C@@H]5C[C@@H](O)CN5C(=O)[C@H]([C@@H](C)O)NC4=O)cc3)cc2)cc1 [anidulafungin]
[4] = compound: CC[C@@H]([C@H](C)O)n1ncn(-c2ccc(N3CCN(c4ccc(OC[C@@H]5CO[C@@](Cn6cncn6)(c6ccc(F)cc6F)C5)cc4)CC3)cc2)c1=O [posaconazole]
[5] = compound: CC[C@H](C)C[C@H](C)CCCCCCCCC(=O)N[C@H]1C[C@@H](O)[C@@H](NCCN)NC(=O)[C@@H]2[C@@H](O)CCN2C(=O)[C@H]([C@H](O)CCN)NC(=O)[C@H]([C@H](O)[C@@H](O)c2ccc(O)cc2)NC(=O)[C@@H]2C[C@@H](O)CN2C(=O)[C@H]([C@@H](C)O)NC1=O [caspofungin]
[6] = compound: C[C@@H](c1ncncc1F)[C@](O)(Cn1cncn1)c1ccc(F)cc1F [voriconazole]
[7] = compound: C[C@@H]1[C@H](O)[C@@H](C)/C=C/C=C/C=C/C=C/C=C/C=C/C=C/[C@H](O[C@@H]2O[C@H](C)[C@@H](O)[C@H](N)[C@@H]2O)C[C@@H]2O[C@](O)(C[C@@H](O)C[C@@H](O)[C@H](O)CC[C@@H](O)C[C@@H](O)CC(=O)O[C@H]1C)C[C@H](O)[C@H]2C(=O)O [amphotericin B]
[8] = compound: Nc1[nH]c(=O)ncc1F [flucytosine]
[9] = compound: OC(Cn1cncn1)(Cn1cncn1)c1ccc(F)cc1F [fluconazole]

| Test System | MIC [1] | MIC [2] | MIC [3] | MIC [4] | MIC [5] | MIC [6] | MIC [7] | MIC [8] | MIC [9] |
| --- | --- | --- | --- | --- | --- | --- | --- | --- | --- |
| Candida albicans isolate 327 (Erg11p: V488I,E266D, Fur1p: A6V, Tac1p: N896S) | 0.06 mg/L [S] | 0.015 mg/L [S] | 0.03 mg/L [S] | 0.03 mg/L [S] | 0.03 mg/L [S] | ≤ 0.008 mg/L [S] | 0.5 mg/L [S] | ≤ 0.06 mg/L [S] | 0.5 mg/L [S] |
| Candida albicans isolate 328 (Erg11p: WT, Fur1p: WT, Tac1p: N896S,C858Y,N823K,I558V,F189S) | 0.06 mg/L [S] | 0.015 mg/L [S] | 0.06 mg/L [S] | 0.03 mg/L [S] | 0.03 mg/L [S] | ≤ 0.008 mg/L [S] | 0.5 mg/L [S] | ≤ 0.06 mg/L [S] | 0.5 mg/L [S] |
| Candida albicans isolate 329 (Erg11p: K342R,E266D, Fur1p: WT, Tac1p: N896S,I895T,I558V,A377V,F189S,N174D,M170I,K87N) | ≤ 0.015 mg/L [S] | 0.015 mg/L [S] | ≤ 0.015 mg/L [S] | 0.015 mg/L [S] | 0.03 mg/L [S] | ≤ 0.008 mg/L [S] | 0.5 mg/L [S] | ≤ 0.06 mg/L [S] | 0.25 mg/L [S] |
| Candida albicans isolate 330 (Erg11p: D153E, Fur1p: WT, Tac1p: N896S) | 0.03 mg/L [S] | 0.015 mg/L [S] | ≤ 0.015 mg/L [S] | 0.015 mg/L [S] | 0.015 mg/L [S] | ≤ 0.008 mg/L [S] | 0.25 mg/L [S] | ≤ 0.06 mg/L [S] | 0.5 mg/L [S] |
| Candida albicans isolate 331 (Erg11p: E266D, Fur1p: WT, Tac1p: I558V,A377V,F189S,N174D,M170I,K87N) | 0.06 mg/L [S] | 0.015 mg/L [S] | ≤ 0.015 mg/L [S] | 0.015 mg/L [S] | 0.06 mg/L [S] | ≤ 0.008 mg/L [S] | 0.25 mg/L [S] | ≤ 0.06 mg/L [S] | 0.25 mg/L [S] |
| Candida albicans isolate 332 (Erg11p: V437I,E266D, Fur1p: WT, Tac1p: F189S,N174D,M170I,A90T,K87N) | ≥ 16 mg/L [R] | 0.015 mg/L [S] | 0.06 mg/L [S] | ≥ 8 mg/L [R] | 0.06 mg/L [S] | ≥ 8 mg/L [R] | 0.5 mg/L [S] | ≤ 0.06 mg/L [S] | ≥ 256 mg/L [R] |
| Candida albicans isolate 333 (Erg11p: V488I,E266D, Fur1p: P119S, Tac1p: M170V) | 0.03 mg/L [S] | ≤ 0.008 mg/L [S] | 0.03 mg/L [S] | 0.015 mg/L [S] | 0.03 mg/L [S] | ≤ 0.008 mg/L [S] | 0.5 mg/L [S] | ≤ 0.06 mg/L [S] | ≤ 0.12 mg/L [S] |
| Candida albicans isolate 334 (Erg11p: G448E,Y132H, Fur1p: R101C, Tac1p: WT) | 0.12 mg/L [S] | 0.015 mg/L [S] | ≤ 0.015 mg/L [S] | 0.03 mg/L [S] | ≤ 0.008 mg/L [S] | 0.5 µg/mL | 0.5 mg/L [S] | 0.5 mg/L [S] | 4 µg/mL |
| Candida albicans isolate 335 (Erg11p: WT, Fur1p: WT, Tac1p: I558V,A377V,F189S,N174D,M170I,K87N) | ≤ 0.015 mg/L [S] | 0.015 mg/L [S] | ≤ 0.015 mg/L [S] | 0.015 mg/L [S] | 0.03 mg/L [S] | ≤ 0.008 mg/L [S] | 0.25 mg/L [S] | ≤ 0.06 mg/L [S] | 0.25 mg/L [S] |
| Candida albicans isolate 336 (Erg11p: V437I,E266D, Fur1p: WT, Tac1p: I895T,F189S,L131I) | 0.06 mg/L [S] | 0.015 mg/L [S] | ≤ 0.015 mg/L [S] | 0.03 mg/L [S] | 0.03 mg/L [S] | 0.03 mg/L [S] | 0.5 mg/L [S] | 0.12 mg/L [S] | 0.25 mg/L [S] |
| Candida albicans isolate 337 (Erg11p: V437I,E266D, Fur1p: WT, Tac1p: N896S,I895T,M170V) | 0.06 mg/L [S] | 0.015 mg/L [S] | 0.06 mg/L [S] | 0.015 mg/L [S] | 0.03 mg/L [S] | ≤ 0.008 mg/L [S] | 0.5 mg/L [S] | ≤ 0.06 mg/L [S] | 0.5 mg/L [S] |
| Candida albicans isolate 338 (Erg11p: WT, Fur1p: WT, Tac1p: N896S) | ≤ 0.015 mg/L [S] | 0.015 mg/L [S] | ≤ 0.015 mg/L [S] | 0.015 mg/L [S] | 0.03 mg/L [S] | ≤ 0.008 mg/L [S] | 0.25 mg/L [S] | ≤ 0.06 mg/L [S] | 0.25 mg/L [S] |
| Candida albicans isolate 339 (Erg11p: WT, Fur1p: WT, Tac1p: WT) | 0.03 mg/L [S] | 0.015 mg/L [S] | 0.06 mg/L [S] | 0.015 mg/L [S] | 0.06 mg/L [S] | ≤ 0.008 mg/L [S] | 0.5 mg/L [S] | ≤ 0.06 mg/L [S] | 0.25 mg/L [S] |
| Candida albicans isolate 340 (Erg11p: G465S,Y132H, Fur1p: R101C, Tac1p: WT) | 0.06 mg/L [S] | 0.015 mg/L [S] | ≤ 0.015 mg/L [S] | 0.015 mg/L [S] | 0.015 mg/L [S] | 0.12 mg/L [S] | 0.5 mg/L [S] | 0.25 mg/L [S] | 2 mg/L [S] |
| Candida albicans isolate 341 (Erg11p: WT, Fur1p: WT, Tac1p: I558V,A377V,F189S,N174D,M170I,K87N) | ≤ 0.015 mg/L [S] | ≤ 0.008 mg/L [S] | ≤ 0.015 mg/L [S] | 0.015 mg/L [S] | 0.015 mg/L [S] | ≤ 0.008 mg/L [S] | 0.5 mg/L [S] | ≤ 0.06 mg/L [S] | 0.25 mg/L [S] |
| Candida albicans isolate 342 (Erg11p: V488I,E266D, Fur1p: WT, Tac1p: N896S,I558V,A377V,F189S,N174D,M170I,K87N) | ≤ 0.015 mg/L [S] | 0.015 mg/L [S] | 0.06 mg/L [S] | 0.015 mg/L [S] | 0.03 mg/L [S] | ≤ 0.008 mg/L [S] | 0.25 mg/L [S] | ≤ 0.06 mg/L [S] | 0.5 mg/L [S] |
| Candida albicans isolate 343 (Erg11p: D153E, Fur1p: WT, Tac1p: N896S) | 0.06 mg/L [S] | 0.015 mg/L [S] | 0.06 mg/L [S] | 0.03 mg/L [S] | 0.03 mg/L [S] | ≤ 0.008 mg/L [S] | 0.25 mg/L [S] | 0.12 mg/L [S] | 0.25 mg/L [S] |
